The record followed here is publication PMC4336329 (PLoS ONE, 2015).

Screen size: about 310,000 compounds; about 2,200 (0.71%) showed an effect of 50% or more. The effect is printed as a negative number. The list shows a part of the results. Where a SMILES comes first, the peptide text is derived from it. [ ]: non-standard residue; d: D form. The star is where a group is joined. ξ: configuration not given here. Cbz = O=C(OCc1ccccc1)*; ξK = NCCCCC(N)C(=O)O

human ether-à-go-go-related gene (hERG) potassium channel, sequence (Q12809 whole entry, looked up): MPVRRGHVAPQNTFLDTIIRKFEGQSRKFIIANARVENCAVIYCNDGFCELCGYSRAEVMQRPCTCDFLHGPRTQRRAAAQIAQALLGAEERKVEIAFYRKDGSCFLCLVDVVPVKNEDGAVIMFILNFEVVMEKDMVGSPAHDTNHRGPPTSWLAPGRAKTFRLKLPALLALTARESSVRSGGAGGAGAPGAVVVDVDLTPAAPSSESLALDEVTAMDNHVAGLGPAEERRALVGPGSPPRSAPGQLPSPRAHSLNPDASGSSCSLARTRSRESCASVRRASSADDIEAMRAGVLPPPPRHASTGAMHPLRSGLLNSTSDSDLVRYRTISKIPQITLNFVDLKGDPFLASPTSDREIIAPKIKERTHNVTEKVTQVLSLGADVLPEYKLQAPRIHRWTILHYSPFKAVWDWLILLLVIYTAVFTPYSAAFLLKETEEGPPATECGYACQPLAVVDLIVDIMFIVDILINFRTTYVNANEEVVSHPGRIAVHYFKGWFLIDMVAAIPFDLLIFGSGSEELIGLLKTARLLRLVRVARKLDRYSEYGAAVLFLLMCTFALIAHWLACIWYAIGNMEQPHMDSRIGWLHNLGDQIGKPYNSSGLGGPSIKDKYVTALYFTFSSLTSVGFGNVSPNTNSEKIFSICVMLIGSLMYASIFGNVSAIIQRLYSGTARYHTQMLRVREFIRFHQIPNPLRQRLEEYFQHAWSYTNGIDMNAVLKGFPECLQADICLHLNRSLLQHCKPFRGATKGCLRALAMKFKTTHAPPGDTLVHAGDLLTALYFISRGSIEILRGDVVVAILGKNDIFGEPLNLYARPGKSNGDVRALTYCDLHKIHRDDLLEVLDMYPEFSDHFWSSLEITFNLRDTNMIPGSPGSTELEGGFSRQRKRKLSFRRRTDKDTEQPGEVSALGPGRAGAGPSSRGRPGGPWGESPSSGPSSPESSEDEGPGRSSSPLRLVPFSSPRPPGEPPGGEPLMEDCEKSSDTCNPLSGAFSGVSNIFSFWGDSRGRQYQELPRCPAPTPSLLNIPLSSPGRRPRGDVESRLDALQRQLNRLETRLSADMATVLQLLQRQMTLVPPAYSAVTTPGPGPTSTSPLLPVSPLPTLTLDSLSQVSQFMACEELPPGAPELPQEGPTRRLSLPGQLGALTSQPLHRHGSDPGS

This assay concerns the target human ether-à-go-go-related gene (hERG) potassium channel (human, UniProt Q12809). Kind of assay: primary screen, population patch clamp on CHO cells stably expressing hERG.
With `COc1cc(C(=O)NCc2nnc(SCC(=O)Nc3cccc(C(F)(F)F)c3)o2)cc(OC)c1OC`, the “hERG current change (%, negative = inhibition) at 1uM” value is listed as 7.07%.

Take `O=C(CNC(=O)c1ccccc1)Oc1cccc(Cl)c1`: the “hERG current change (%, negative = inhibition) at 1uM” value was 14.9%.

With `CCN1CCN(C(=O)c2ccc3c(=O)n(Cc4ccccc4OC)c(=S)[nH]c3c2)CC1`, the “hERG current change (%, negative = inhibition) at 1uM” value worked out at 10.9%.

For the compound `COc1ccc(C(=O)Nc2cccc3c2CCCC3)c(OC)c1`, the “hERG current change (%, negative = inhibition) at 1uM” value is on record as 2.57%.

Take `COCCn1c(=N)c(S(=O)(=O)c2ccc(F)cc2)cc2c(=O)n3ccccc3nc21`: the “hERG current change (%, negative = inhibition) at 1uM” value came to 11.2%.

Take `COc1ccc(CN(C)C(=O)C2CCN(C(=O)Nc3ccccc3)CC2)cc1OC`: the “hERG current change (%, negative = inhibition) at 1uM” value is 10.9%.

For the compound `Cc1cc(-c2ccc3c(c2)COc2c4ccccc4nn2-3)on1`, the “hERG current change (%, negative = inhibition) at 1uM” value stood at 15.2%.

As to `Cc1nc(N2CCC(C)CC2)c2c(C)c(C(=O)O)sc2n1`, the “hERG current change (%, negative = inhibition) at 1uM” value turned out to be 11%.

Take `Cc1ccc(CN2CCCC(C(=O)c3cccc(C(F)(F)F)c3)C2)o1` (centres unmarked): the “hERG current change (%, negative = inhibition) at 1uM” value was 11.3%.

For the compound `CC(=O)Nc1ccc(NC(=O)c2nc(S(=O)(=O)Cc3cccc(C)c3)ncc2Cl)cc1`, the “hERG current change (%, negative = inhibition) at 1uM” value is given as 10.4%.

Take `COc1ccc(N2CCN(S(=O)(=O)c3cc4c5c(c3)C(C)C(=O)N5CCC4)CC2)cc1` (centres unmarked): the “hERG current change (%, negative = inhibition) at 1uM” value is on record as -4.27%.

In the case of `CC(C)OC(=O)CN1C(=O)C(=O)c2ccccc21`, the “hERG current change (%, negative = inhibition) at 1uM” value worked out at 3.47%.

As for `COc1cccc(CC2(CO)CCCN(C(=O)c3cc[n+]([O-])cc3)C2)c1` (centres unmarked), the “hERG current change (%, negative = inhibition) at 1uM” value was 6.73%.

On to `N#Cc1cnn(-c2nc3sc4c(c3c(=O)[nH]2)CCCC4)c1N`, for which the “hERG current change (%, negative = inhibition) at 1uM” value came to 14.6%.

As to `C[C@@H](CN1C(=O)C(=O)NC[C@@H]1Cc1ccc(O)cc1)NC(=O)Cc1ccccc1`, the “hERG current change (%, negative = inhibition) at 1uM” value was found to be 10.6%.

For `CC(=O)Nc1ccc(S(=O)(=O)NNC(=O)CCc2ccccc2)cc1`, the “hERG current change (%, negative = inhibition) at 1uM” value stood at 12.5%.

In the case of `CCOC(=O)N1CCN(C(=O)CN(Cc2ccc(Cl)cc2)S(=O)(=O)c2ccc(C)cc2)CC1`, the “hERG current change (%, negative = inhibition) at 1uM” value is listed as -23.2%.

In the case of `CCS(=O)(=O)N1CCC(C(=O)NCc2ccc(OC)cc2)CC1`, the “hERG current change (%, negative = inhibition) at 1uM” value worked out at 3.22%.

For the compound `O=C(c1ccc(O)cc1)c1ccc(O)cc1O`, the “hERG current change (%, negative = inhibition) at 1uM” value is -0.267%.

On to `Fc1ccc(Nc2ncnc3sc4c(c23)CCC4)cc1F`, for which the “hERG current change (%, negative = inhibition) at 1uM” value is 1.54%.

For `Cc1ccccc1NC(=O)Cn1nnc2sc3c(c2c1=O)CC(C)(C)OC3`, the “hERG current change (%, negative = inhibition) at 1uM” value is listed as 7.21%.

For the compound `CCC(=NC(CC)CO)C1=C(O)CC(C)(C)CC1=O` (centres unmarked), the “hERG current change (%, negative = inhibition) at 1uM” value is 4.54%.

Take `Cc1cc(C)cc(OCCCOc2cccc3cccnc23)c1`: the “hERG current change (%, negative = inhibition) at 1uM” value is given as 8.05%.

`CC(C)Oc1cccc(C(=O)C2CCCN(Cc3ccon3)C2)c1` (centres unmarked): the “hERG current change (%, negative = inhibition) at 1uM” value amounted to 5.65%.

In the case of `Cc1cc(C)n(CC(=O)N/N=C/c2ccc([N+](=O)[O-])s2)n1`, the “hERG current change (%, negative = inhibition) at 1uM” value was determined as 18.5%.

In the case of `Cc1ccc(-c2nn(C)c(=O)c3ccccc23)cc1CNC(=O)/C=C/c1ccccc1`, the “hERG current change (%, negative = inhibition) at 1uM” value is 2.2%.

On to `CNC(=S)NCCc1cc2c(OC)ccc(OC)c2[nH]c1=O`, for which the “hERG current change (%, negative = inhibition) at 1uM” value worked out at 11.5%.

As to `COc1cccc(-c2nc(CS(=O)CC(=O)NCCCOC(C)C)c(C)o2)c1` (centres unmarked), the “hERG current change (%, negative = inhibition) at 1uM” value was determined as 6.94%.

`CC(C)(C)NC(=O)CN1CCCN(C(=O)COc2ccc(Cl)c3ccccc23)CC1`: the “hERG current change (%, negative = inhibition) at 1uM” value is on record as -4.55%.

For the compound `CCOc1cc(N2CCOCC2)c(OCC)cc1NC(=O)C(C)C`, the “hERG current change (%, negative = inhibition) at 1uM” value is 0.613%.

In the case of `S=c1[nH]nc(COc2ccccc2)n1/N=C/c1ccco1`, the “hERG current change (%, negative = inhibition) at 1uM” value worked out at 12.4%.

On to `CS(=O)(=O)N(CC(=O)NCc1ccncc1)c1cc(Cl)ccc1Cl`, for which the “hERG current change (%, negative = inhibition) at 1uM” value worked out at 14.6%.

Consider `CC(C)OC(=O)CSc1nc2ncccc2[nH]1`, for which the “hERG current change (%, negative = inhibition) at 1uM” value turned out to be 5.34%.

In the case of `O=c1c(-c2ccc(O)cc2)coc2cc(OC3OC(CO)C(O)C(O)C3O)ccc12` (centres unmarked), the “hERG current change (%, negative = inhibition) at 1uM” value is listed as 18.4%.

On to `COc1ccc(Cl)cc1C(=O)N1CCN=C1SC`, for which the “hERG current change (%, negative = inhibition) at 1uM” value was found to be 19.4%.

On to `COc1ccc(CN(C)C(=O)Cn2ccsc2=N)cc1OC.Cl`, for which the “hERG current change (%, negative = inhibition) at 1uM” value was 18.6%.

Consider `CC1=C(C)CC(C(=O)N2CCN(Cc3ccccc3)CC2)C(C(=O)O)C1` (centres unmarked), for which the “hERG current change (%, negative = inhibition) at 1uM” value is listed as 7.43%.

For the compound `COc1ccc2cc(C(C)C(=O)Nc3cccc(S(=O)(=O)N(C)C)c3)ccc2c1` (centres unmarked), the “hERG current change (%, negative = inhibition) at 1uM” value was 9.48%.

Take `COC(=O)c1sc(S(=O)(=O)N2CCCCC2C(=O)O)c(C(=O)OC)c1C` (centres unmarked): the “hERG current change (%, negative = inhibition) at 1uM” value came to 11%.

Take `CCc1ncc(CN2CCCCC2C(=O)Nc2ccc(Oc3ccccc3)nc2)cn1` (centres unmarked): the “hERG current change (%, negative = inhibition) at 1uM” value was 3.16%.

Take `CCOc1nc(NCc2ccco2)nc(Nc2ccccc2F)n1`: the “hERG current change (%, negative = inhibition) at 1uM” value turned out to be 13.4%.

`CC(c1nnc(SCC(=O)c2c(N)n(C)c(=O)n(C)c2=O)n1-c1ccc(Cl)cc1)N(C)C` (centres unmarked): the “hERG current change (%, negative = inhibition) at 1uM” value worked out at 19.1%.

`O=C(O)C1CC=CCC1C(=O)NCCc1cccc(Cl)c1` (centres unmarked): the “hERG current change (%, negative = inhibition) at 1uM” value is reported as 7.36%.

`Cn1c(=O)c2c(ncn2CC(=O)OCC(=O)NCc2ccccc2Cl)n(C)c1=O`: the “hERG current change (%, negative = inhibition) at 1uM” value turned out to be 17.7%.

Turning to `C=CCNc1nc(Nc2ccc([N+](=O)[O-])cc2)nc(N2CCCC2)n1`, the “hERG current change (%, negative = inhibition) at 1uM” value was determined as 4.66%.

As for `Cc1ccc(NC(=O)NNC(=O)CN2C(=O)COc3ccccc32)cc1`, the “hERG current change (%, negative = inhibition) at 1uM” value worked out at 6.96%.

Turning to `CC(C)Cn1c(CNC(=O)c2ccccc2)nc2ccccc21`, the “hERG current change (%, negative = inhibition) at 1uM” value is 2.27%.

For `NCCCC[C@@H](C(=O)NCCCCCCCCCCC(=O)N1CCNCC1)n1cc(CCO)nn1`, the “hERG current change (%, negative = inhibition) at 1uM” value is recorded as 18.5%.

Consider `O=C(CCc1nc2ccccc2c(=O)[nH]1)N1CCN(S(=O)(=O)c2ccc(Cl)c(C(F)(F)F)c2)CC1`, for which the “hERG current change (%, negative = inhibition) at 1uM” value is listed as -3.59%.

`O=C(Cn1nnc(-c2cccc(C(F)(F)F)c2)n1)NC(=O)NCc1ccco1`: the “hERG current change (%, negative = inhibition) at 1uM” value is 14.5%.

Take `CCOC(=O)c1c2c([nH]c(=S)c1C#N)CCCC2`: the “hERG current change (%, negative = inhibition) at 1uM” value worked out at 7.1%.

As for `COc1ccc(NC(=O)O/N=C/c2ccc(Br)cc2)cc1`, the “hERG current change (%, negative = inhibition) at 1uM” value is reported as 33.9%.

Consider `CC(C)c1ccccc1NC(=O)c1cccnc1`, for which the “hERG current change (%, negative = inhibition) at 1uM” value was found to be 9.23%.

For the compound `CC1CC(C)CN(CCCNC(=O)C2CCN(c3nnc(-n4cccc4)s3)CC2)C1` (centres unmarked), the “hERG current change (%, negative = inhibition) at 1uM” value was 5.15%.

As to `COc1ccccc1C(=O)NCCn1cc(SCC(=O)Nc2cc(C)on2)c2ccccc21`, the “hERG current change (%, negative = inhibition) at 1uM” value was determined as 3.01%.

Take `COC(=O)C(CCCCNC(=O)OCc1ccccc1)NC(=O)CN.Cl` (centres unmarked) (H-Gly-[ξK](Cbz)-OMe): the “hERG current change (%, negative = inhibition) at 1uM” value is listed as 4.94%.
